Experimental data published in PubChem BioAssay AID1346428 (National Center for Advancing Translational Sciences (NCATS), 2018).
Screen size: about 48,000 compounds; about 1,200 (2.5%) were called active. About 2% were inconclusive and are not listed.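 Rule for the calls: active = activation of at least 60% and not above a set upper limit (about 1 call in 100 departs from these limits); inconclusive = activation of 40% to 60%, or above that upper limit; inactive = activation under 40%.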 The list shows a part of the results.

target: Probable G-protein coupled receptor 32 (Homo sapiens) (UniProt O75388); test: qHTS for Agonists of Human Resolvin D1 Receptor DRV1; details: CHO-K1 GPR32 beta-arrestin PathHunter luminescence, 90 min; at 76.9 µM; stronger effect = higher value; zero percent set by DMSO-only wells; note: 0% is about no effect
In short: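 Engineered CHO-K1 line co-expressing GPR32-ProLink and EA-beta-arrestin. Compound treatment lasted 90 min at 37 °C. Luminescence was recorded after 1 h with substrate at ambient temperature, relative to DMSO basal wells.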

Chain of UniProt O75388 (O75388 whole entry, looked up): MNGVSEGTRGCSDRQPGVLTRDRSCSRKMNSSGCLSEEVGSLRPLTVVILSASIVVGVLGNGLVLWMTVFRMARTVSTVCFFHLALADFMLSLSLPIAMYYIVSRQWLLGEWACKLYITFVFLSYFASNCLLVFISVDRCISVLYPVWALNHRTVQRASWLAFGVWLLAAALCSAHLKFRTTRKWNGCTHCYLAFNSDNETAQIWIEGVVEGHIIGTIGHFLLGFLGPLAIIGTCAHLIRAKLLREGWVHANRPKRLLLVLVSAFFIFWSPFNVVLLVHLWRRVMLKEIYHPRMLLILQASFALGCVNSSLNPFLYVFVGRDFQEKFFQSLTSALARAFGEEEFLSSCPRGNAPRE

activation, inactive:
COc1ccc(CNC(=O)CCc2c(C)c3cc4c(C)coc4c(C)c3oc2=O)cc1OC -17.9%
CCCCN(C)CCNC(=O)c1cc2c(=O)n(C)c3ccccc3c2n1C -4.13%
Cc1ccc(S(=O)(=O)CC(=O)N2CCN(c3nc4c(F)cccc4s3)CC2)cc1 28.6%
CN1C(=O)c2ccccc2Sc2ccc(NC(=O)c3ccc(C(F)(F)F)cc3)cc21 14.9%
N#Cc1ccccc1NS(=O)(=O)c1ccc(N2CCCCS2(=O)=O)cc1 7.67%
CCCc1nn2c(=O)cc(COC(=O)c3ccc(NC(=O)COc4ccccc4)cc3)nc2s1 -17.2%
CCn1c2c(c(=O)n3ncc(C(=O)N4CCN(c5ccc(Cl)cc5)CC4)c13)CN(Cc1ccc(OC)cc1)CC2 -1%
CCn1cc(C(=O)N2CCN(c3ccccc3)CC2)c(=O)c2cc(S(=O)(=O)N3CCOCC3)ccc21 -0.709%
CCC(Oc1ccc(F)cc1)C(=O)Nc1c(C(=O)c2ccc(C)cc2)oc2ccccc12 (stereo not drawn) -13.6%
COC(=O)c1cc2oc3ccccc3c2n1Cc1ccc(Cl)cc1 -15.7%
COc1ccc(-c2nc3scc(CCNS(=O)(=O)c4ccc(F)cc4C)n3n2)cc1 18.3%
O=C1CSC2(C(=O)N(Cc3cccc(F)c3)c3ccccc32)N1c1cccc(C(F)(F)F)c1 (stereo not drawn) -23.6%
CC(C)COc1ccc(C(=O)N2CCN(CCc3ccncc3)CC2)cc1 14.7%
COc1cccc(CN2c3ccccc3-c3nc(SCC(=O)Nc4ccccc4Cl)ncc3S2(=O)=O)c1 3.72%
COc1ccc(Nc2cc(C(=O)NCCCN3CCN(c4ccccc4F)CC3)c3ccccc3n2)c(OC)c1 -36.9%
Cc1ccc(-c2ccc(=O)n(CCC(=O)NCCc3ccccc3)n2)cc1 34.9%
CCN(CC)CCNC(=O)c1cc2c(=O)n(C)c3cc(Cl)ccc3c2s1 6.28%
CCOC(=O)c1[nH]c(C)c(CCC(=O)NCc2ccc(CC)cc2)c1C -12.8%
COc1ccc(N(C)C(=O)c2cn(C)c(=O)c3cc(OC)c(OC)cc23)cc1 0.0355%
Cc1ccc(Cn2c(CO)cnc2SCC(=O)Nc2ccc(C)c(Cl)c2)cc1 31.9%
COc1ccc(NC(=O)c2ccc3nc(C(C)C)oc3c2)cc1OC -10.9%
O=C(c1cccn2c(=O)c3cc(Cl)ccc3nc12)N1CCN(c2ccccc2F)CC1 -9.07%
CC(C)c1ccc(NC(=O)c2ccc(F)c(S(=O)(=O)N3CCc4ccccc4C3)c2)cc1 -3.07%
CCOc1ccc(NC(=O)CC2C(=O)N(c3ccc(C)cc3)C(=O)N2CCC2=CCCCC2)cc1 (stereo not drawn) 8.1%
Nc1nonc1-c1nc2ccccc2n1Cc1cccc(Cl)c1 9.6%
CCOc1ccc(-n2nc(CO)c(C(=O)NCCCc3ccccc3)n2)cc1 -19.9%
CC(=O)Nc1ccc(S(=O)(=O)N2CCC(c3nnnn3-c3ccccc3)CC2)cc1 5.87%
CCOc1ccc(C(=O)Nc2cccc(C(=O)OCc3cc(=O)n4nc(C5CC5)sc4n3)c2)cc1 0.878%
COc1ccc(Cl)cc1NC(=O)Cn1cc(C(=O)c2ccc(C)cc2)c(=O)c2ccc(C)nc21 29.6%
COc1ccc(CCNC(=O)c2c(O)nc3ccccn3c2=O)cc1 9.73%
Cc1ccccc1CN1C(=O)C2(c3ccccc31)N(c1ccccc1)C(=O)CS2(=O)=O (stereo not drawn) -8.28%
CCOC(=O)c1ccccc1NC(=O)CSc1nc(=O)[nH]c2c1CCC2 -8.24%
O=C(COc1ccc(Cl)cc1)Nc1ccc(C(=O)OCc2cc(=O)n3ccsc3n2)cc1 15.5%
FC(F)(F)Oc1ccc2c(c1)NC(c1ccncc1)=NC(c1cccs1)=N2 -24.6%
COc1ccc2oc(=O)c(C(=O)Nc3ccc(C(=O)O)cc3)cc2c1 3.76%
C=CCc1cccc2cc(C(=O)Nc3ccc(F)cc3)c(=O)oc12 -3.59%
Cc1ccc(NC(=O)CCSc2nc(-c3ccco3)cc(C(F)(F)F)n2)cc1F -5.88%
Cc1ccn2c(=O)c(C(=O)NCCCN3CCCCC3C)c(O)nc2c1 (stereo not drawn) -18.4%
Nc1ccc(S(=O)(=O)Nc2ccc(Cl)nn2)cc1 29.5%
CCOC(=O)N1CCN(Cc2nc3cc(NC(=O)c4ccc(OC)cc4)ccc3n2C(C)C)CC1 -4.96%
COc1ccc(OCC(=O)Nc2nnc3n2CCS3)cc1 -9.64%
Cc1cc(C)c(NC(=O)CCn2c(=O)c3cccn3c3cccnc32)c(C)c1 -14.1%
Clc1cccc(CNc2cc(-c3ccccc3)nc3nncn23)c1 -24.1%
OCCN1CCN(C(c2ccccc2Cl)c2sc3nc(-c4ccco4)nn3c2O)CC1 (stereo not drawn) 11.9%
COc1cccc(-c2cn3c(n2)sc2cc(C(=O)NCCc4ccc(OC)c(OC)c4)ccc23)c1 -13.2%
N#CC1=C(N)N(c2cccc(Cl)c2)C2=C(C(=O)CCC2)C1c1cc(CN2CCOCC2)cs1 (stereo not drawn) -3.68%
CC(C)N1C(=O)C(O)(c2c[nH]c3ccccc23)c2ccccc21 (stereo not drawn) -1.44%
Cc1cccc(N2CCn3c2nc2c3c(=O)n(CCc3ccccc3)c(=O)n2C)c1 -9.94%
CCCS(=O)(=O)N1CC(=O)N(c2cc(C)ccc2C)C(C)(C(=O)NC2CCCCCC2)C1 (stereo not drawn) -8.91%
Cc1cccc(N2C(=O)CS(=O)(=O)C23C(=O)N(Cc2c(F)cccc2Cl)c2ccccc23)c1 (stereo not drawn) -8.12%
CSc1cccc(NC(=O)CN2CCN(Cc3ccccc3C)S2(=O)=O)c1 -17.4%
Cc1cc(N)c(-n2cc3c(c2-c2ccc(Br)cc2)c(=O)n(C)c(=O)n3C)cc1C -13.2%
Cc1cc(C)cc(Oc2coc3cc(OCC(=O)NC4CCCCC4)ccc3c2=O)c1 -6.69%
